Substitutions are numbered along the chain they refer to.
B1: open-stabilized GAIM-Ig fusion protein PB108 (Fc fusion)
chain: MAETVESCLAKPHTENSFTNVWKEGDSRYANYEGCLWNAGGVVVCTGDETQCYGHWVPIGLAIPENEGGGSEGGGSEGGGSEGGGTKPPEYGDTPIPGYTYINPLDGTYPPGTEQNPANPNPSLEESQPLNTFMFQGNRFRNRQGALTVYTGTFTQGTDPVKTYYQYTPVSSRAMYDAYWNGKFRDCAFHSGFNEDPFVCEYQGQSSDLPQPPANAGGESGGGSGGGSEGGGSEGGGSEGGGSEGGGSGGGSGSGARS[letters of human IgG1 Fc not shown]
notes: also called representative open-stabilized GAIM-Ig fusion
B2: open-stabilized GAIM-Ig fusion protein PB116 (Fc fusion)
chain: B1 chain with N142A
B3: open-stabilized GAIM-Ig fusion protein PB122 (Fc fusion)
chain: B1 chain with G137N, R143V, Q144N, A146V
B4: open-stabilized GAIM-Ig fusion protein PB109 (Fc fusion)
chain: B1 chain with T50H, H55T, N142A
B5: open-stabilized GAIM-Ig fusion protein PB110 (Fc fusion)
chain: B1 chain with T50H, H55T, G137N, N142A, R143V, Q144N, A146V
B6: open-stabilized GAIM-Ig fusion protein PB114 (Fc fusion)
chain: B1 chain with G137N, N142A, R143V, Q144N, A146V
B7: open-stabilized GAIM-Ig fusion protein PB127 (Fc fusion)
chain: B1 chain with N38A, T50H, H55T
B8: open-stabilized GAIM-Ig fusion protein PB105 (Fc fusion)
chain: B1 chain with T50H, H55T
B9: GAIM-Ig fusion protein PB120 (Fc fusion)
chain: MAETVESCLAKPHTENSFTNVWKDDKTLDRYANYEGCLWNAGGVVVCTGDETQCYGTWVPIGLAIPENEGGGSEGGGSEGGGSEGGGTKPPEYGDTPIPGYTYINPLDGTYPPGTEQNPANPNPSLEESQPLNTFMFQNNRFRNRQGALTVYTGTFTQGTDPVKTYYQYTPVSSRAMYDAYWNGKFRDCAFHSGFNEDPFVCEYQGQSSDLPQPPANAGGESGGGSGGGSEGGGSEGGGSEGGGSEGGGSGGGSGSGARS[letters of human IgG1 Fc not shown]
notes: also called control scaffold; GAIM scaffold

Target: T1, Aβ1-42 fibers (human, UniProt P05067 fragment)
Test: cell-based or functional assay

| fAβ42 Remodeling (%) | Binder |
| --- | --- |
| 87% | B1 |
| 82% | B2 |
| 80% | B3 |
| 82% | B4 |
| 92% | B5 |
| 86% | B6 |

Target: T2, TauK18P301L fibers (human, UniProt P10636-8 244-372)
T2 construct: range 244-372; also called fTauKL; TauKL
Test: ELISA on coated TauK18P301L fibers; column head 'fTauKL Binding (nM)'

| EC50 | Binder |
| --- | --- |
| 15 nM | B1 |
| 7 nM | B2 |
| 24 nM | B3 |
| 5.2 nM | B4 |
| 7.6 nM | B5 |
| 8.7 nM | B6 |

Target: T1, Aβ1-42 fibers
Test: ELISA on coated Aβ42 fibers; column head 'fAβ42 Binding (nM)'

T1 sequence (P05067 672-713 limits assumed): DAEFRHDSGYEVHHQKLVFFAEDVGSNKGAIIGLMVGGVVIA

| EC50 | Binder |
| --- | --- |
| 1 nM | B1 |
| 0.8 nM | B2 |
| 1.3 nM | B3 |
| 0.8 nM | B7 |
| 0.8 nM | B4 |
| 0.8 nM | B8 |
| 0.9 nM | B5 |
| 0.9 nM | B6 |

Target: T3, LC lambda_1 (variable + constant)
T3 construct: also called immunoglobulin light chain (LC) aggregates
Test: ELISA on aggregates

| EC50 | Binder |
| --- | --- |
| 24 nM | B1 |

Target: T4, LC lambda_1 (variable)
T4 construct: also called immunoglobulin light chain (LC) aggregates
Test: ELISA on aggregates

| EC50 | Binder |
| --- | --- |
| 1.3 nM | B1 |

Target: Wild-type TTR aggregates (UniProt P02766)
Test: ELISA on aggregates

| EC50 | Binder |
| --- | --- |
| 105 nM | B9 |
| 7 nM | B1 |

Target: T5, LC lambda_2 (variable)
T5 construct: also called immunoglobulin light chain (LC) aggregates
Test: ELISA on aggregates

| EC50 | Binder |
| --- | --- |
| 19 nM | B1 |

Target: T1, Aβ1-42 fibers
Test: SPR

| Kd | Binder |
| --- | --- |
| 0.5 nM | B1 |

Target: T1, Aβ1-42 fibers
Test: ELISA on coated fibers

| EC50 | Binder |
| --- | --- |
| 18 nM | B9 |
| 0.8 nM | B1 |

Target: T2, TauK18P301L fibers
Test: ELISA on coated fibers

T2 sequence (P10636 561-689 P618L limits assumed): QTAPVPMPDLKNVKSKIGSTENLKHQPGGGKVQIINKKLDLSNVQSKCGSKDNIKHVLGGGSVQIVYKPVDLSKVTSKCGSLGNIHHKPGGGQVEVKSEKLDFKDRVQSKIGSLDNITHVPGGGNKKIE

| EC50 | Binder |
| --- | --- |
| 59 nM | B9 |
| 14 nM | B1 |

Reference: US20230279064A1 (published 2023)
